Source: US20260137759A1 (IMMUNITYBIO, published 2026)

Biological target: T1, TGFβ Receptor II/IL-15RαSu fusion protein (human)
T1 construct: also called TGFβR/IL-15RαSu; TGFR/IL15RαSu
T1 chain: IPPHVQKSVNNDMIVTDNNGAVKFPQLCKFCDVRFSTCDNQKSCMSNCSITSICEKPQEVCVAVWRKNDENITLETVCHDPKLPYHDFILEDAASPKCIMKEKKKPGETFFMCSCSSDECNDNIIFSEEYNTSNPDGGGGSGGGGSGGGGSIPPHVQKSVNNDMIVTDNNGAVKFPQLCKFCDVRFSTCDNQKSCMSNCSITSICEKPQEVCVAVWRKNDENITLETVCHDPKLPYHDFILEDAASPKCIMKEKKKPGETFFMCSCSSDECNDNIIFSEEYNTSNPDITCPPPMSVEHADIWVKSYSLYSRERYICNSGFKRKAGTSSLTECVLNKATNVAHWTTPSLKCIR
Test: co-expression in CHO-K1 cells, complex formation

binding result: binds
B1: TGFR/TF/IL15D8N fusion protein (other)
chain: IPPHVQKSVNNDMIVTDNNGAVKFPQLCKFCDVRFSTCDNQKSCMSNCSITSICEKPQEVCVAVWRKNDENITLETVCHDPKLPYHDFILEDAASPKCIMKEKKKPGETFFMCSCSSDECNDNIIFSEEYNTSNPDGGGGSGGGGSGGGGSIPPHVQKSVNNDMIVTDNNGAVKFPQLCKFCDVRFSTCDNQKSCMSNCSITSICEKPQEVCVAVWRKNDENITLETVCHDPKLPYHDFILEDAASPKCIMKEKKKPGETFFMCSCSSDECNDNIIFSEEYNTSNPDSGTTNTVAAYNLTWKSTNFKTILEWEPKPVNQVYTVQISTKSGDWKSKCFYTTDTECDLTDEIVKDVKQTYLARVFSYPAGNVESTGSAGEPLYENSPEFTPYLETNLGQPTIQSFEQVGTKVNVTVEDERTLVRRNNTFLSLRDVFGKDLIYTLYYWKSSSSGKKTAKTNTNEFLIDVDKGENYCFSVQAVIPSRTVNRKSTDSPVECMGQEKGEFRE[letters of about 120 residues with changes not shown]
notes: First chain of TGFRt15*-TGFRs (HCW9228)
